According to the supplement of paper PMC8728848:
The other results are listed elsewhere or left out.

Assays:
Assay in all cases: glycan array binding signal (z-score within array); higher = stronger binding
Conditions in all cases: glycan notation: IUPAC condensed, linker removed
[1] = target: Neu5Ac(a2-3)Gal(b1-4)GlcNAc(b1-3)[Neu5Ac(a2-3)Gal(b1-4)GlcNAc(b1-6)]GalNAc
Procedure, shortened: (§1)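 Glycan array binding is given as a within-array Z-score, which can be read as non-binding when negative. The arrays, 3228 of them, came from the Consortium for Functional Glycomics database and were retained only where the protein sequence was available. Z-scores were averaged across arrays of the same protein sequence at different concentrations or buffers and across linkers.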

[2] = target: Neu5Ac(a2-3)Gal(b1-4)GlcNAc(b1-6)GalNAc
Procedure, shortened: as §1

[3] = target: Neu5Ac(a2-3)Gal(b1-4)GlcNAc(b1-6)[Gal(b1-3)]GalNAc
Procedure, shortened: as §1

[4] = target: Neu5Ac(a2-3)Gal(b1-4)GlcNAc(b1-6)[Neu5Ac(a2-3)Gal(b1-3)]GalNAc
Procedure, shortened: as §1

[5] = target: Neu5Ac(a2-3)Gal(b1-4)GlcNAc6S
Procedure, shortened: as §1

[6] = target: Neu5Ac(a2-3)Gal(b1-4)[Fuc(a1-3)]GlcNAc
Procedure, shortened: as §1

[7] = target: Neu5Ac(a2-3)Gal(b1-4)[Fuc(a1-3)]GlcNAc(b1-2)Man
Procedure, shortened: as §1

[8] = target: Neu5Ac(a2-3)Gal(b1-4)[Fuc(a1-3)]GlcNAc(b1-3)Gal
Procedure, shortened: as §1

[9] = target: Neu5Ac(a2-3)Gal(b1-4)[Fuc(a1-3)]GlcNAc(b1-3)Gal(b1-4)GlcNAc
Procedure, shortened: as §1

[10] = target: Neu5Ac(a2-3)Gal(b1-4)[Fuc(a1-3)]GlcNAc(b1-3)Gal(b1-4)[Fuc(a1-3)]GlcNAc(b1-3)Gal(b1-4)[Fuc(a1-3)]GlcNAc
Procedure, shortened: as §1

[11] = target: Neu5Ac(a2-3)Gal(b1-4)[Fuc(a1-3)]GlcNAc(b1-3)GalNAc
Procedure, shortened: as §1

[12] = target: Neu5Ac(a2-3)Gal(b1-4)[Fuc(a1-3)]GlcNAc(b1-6)[Gal(b1-3)]GalNAc
Procedure, shortened: as §1

[13] = target: Neu5Ac(a2-3)Gal(b1-4)[Fuc(a1-3)]GlcNAc(b1-6)[Neu5Ac(a2-3)Gal(b1-3)]GalNAc
Procedure, shortened: as §1

[14] = target: Neu5Ac(a2-3)Gal(b1-4)[Fuc(a1-3)]GlcNAc6S
Procedure, shortened: as §1

[15] = target: Neu5Ac(a2-3)Gal6S(b1-4)GlcNAc
Procedure, shortened: as §1

[16] = target: Neu5Ac(a2-3)Gal6S(b1-4)[Fuc(a1-3)]GlcNAc
Procedure, shortened: as §1

Neu5Ac(a2-3)GalNAc = target: Neu5Ac(a2-3)GalNAc
Procedure, shortened: as §1

[17] = target: Neu5Ac(a2-3)GalNAc(b1-4)GlcNAc
Procedure, shortened: as §1

[18] = target: Neu5Ac(a2-3)[GalNAc(b1-4)]Gal(b1-4)Glc
Procedure, shortened: as §1

[19] = target: Neu5Ac(a2-3)[GalNAc(b1-4)]Gal(b1-4)GlcNAc
Procedure, shortened: as §1

[20] = target: Neu5Ac(a2-3)[GalNAc(b1-4)]Gal(b1-4)GlcNAc(b1-3)GalNAc
Procedure, shortened: as §1

[21] = target: Neu5Ac(a2-3)[Neu5Ac(a2-6)]GalNAc
Procedure, shortened: as §1

Neu5Ac(a2-6)Gal = target: Neu5Ac(a2-6)Gal
Procedure, shortened: as §1

[22] = target: Neu5Ac(a2-6)Gal(b1-3)GlcNAc(b1-3)[Gal(b1-4)GlcNAc(b1-6)]Gal(b1-4)Glc
Procedure, shortened: as §1

Neu5Ac(a2-6)Gal(b1-4)Glc = target: Neu5Ac(a2-6)Gal(b1-4)Glc
Procedure, shortened: as §1

[23] = target: Neu5Ac(a2-6)Gal(b1-4)GlcNAc
Procedure, shortened: as §1

[24] = target: Neu5Ac(a2-6)Gal(b1-4)GlcNAc(b1-2)Man
Procedure, shortened: as §1

[25] = target: Neu5Ac(a2-6)Gal(b1-4)GlcNAc(b1-2)Man(a1-3)Man(b1-4)GlcNAc(b1-4)GlcNAc
Procedure, shortened: as §1

[26] = target: Neu5Ac(a2-6)Gal(b1-4)GlcNAc(b1-2)Man(a1-3)[Gal(b1-4)GlcNAc(b1-2)Man(a1-6)]Man(b1-4)GlcNAc(b1-4)GlcNAc
Procedure, shortened: as §1

[27] = target: Neu5Ac(a2-6)Gal(b1-4)GlcNAc(b1-2)Man(a1-3)[GlcNAc(b1-2)Man(a1-6)]Man(b1-4)GlcNAc(b1-4)GlcNAc
Procedure, shortened: as §1

[28] = target: Neu5Ac(a2-6)Gal(b1-4)GlcNAc(b1-2)Man(a1-3)[GlcNAc(b1-4)][Neu5Ac(a2-6)Gal(b1-4)GlcNAc(b1-2)Man(a1-6)]Man(b1-4)GlcNAc(b1-4)GlcNAc
Procedure, shortened: as §1

B1: DC-ASGPR L+GEE (Homo sapiens) (protein)
chain: MTRTYENFQYLENKVKVQGFKNGPLPLQSLLQRLRSGPCHLLLSLGLGLLLLVIICVVGFQNSKFQRDLVTLRTDFSNFTSNTVAEIQALTSQGSSLEETIASLKAEVEGFKQERQAGVSELQEHTTQKAHLGHCPHCPSVCVPVHSEMLLRVQQLVQDLKKLTCQVATLNNNGEEASTEGTCCPVNWVEHQDSCYWFSHSGMSWAEAEKYCQLKNAHLVVINSREEQNFVQKYLGSAYTWMGLSDPEGAWKWVDGTDYATGFQNWKPGQPDDWQGHGLGGGEDCAHFHPDGRWNDDVCQRPYHWVCEAGLGQTSQESH
glycan array binding signal (z-score) [1]: -0.445
glycan array binding signal (z-score) [2]: 3
glycan array binding signal (z-score) [3]: -0.019
glycan array binding signal (z-score) [4]: -0.577
glycan array binding signal (z-score) [5]: -0.407
glycan array binding signal (z-score) [6]: -0.443
glycan array binding signal (z-score) [7]: -0.528
glycan array binding signal (z-score) [8]: -0.001
glycan array binding signal (z-score) [9]: -0.068
glycan array binding signal (z-score) [10]: -0.143
glycan array binding signal (z-score) [11]: 0.838
glycan array binding signal (z-score) [12]: -0.693
glycan array binding signal (z-score) [13]: -0.297
glycan array binding signal (z-score) [14]: -0.418
glycan array binding signal (z-score) [15]: -0.494
glycan array binding signal (z-score) [16]: -0.509
glycan array binding signal (z-score) (Neu5Ac(a2-3)GalNAc): -0.223
glycan array binding signal (z-score) [17]: -0.213
glycan array binding signal (z-score) [18]: 0.821
glycan array binding signal (z-score) [19]: 0.264
glycan array binding signal (z-score) [20]: 0.219
glycan array binding signal (z-score) [21]: 0.194
glycan array binding signal (z-score) (Neu5Ac(a2-6)Gal): -0.394
glycan array binding signal (z-score) [22]: -0.639
glycan array binding signal (z-score) (Neu5Ac(a2-6)Gal(b1-4)Glc): -0.594
glycan array binding signal (z-score) [23]: -0.57
glycan array binding signal (z-score) [24]: 0.432
glycan array binding signal (z-score) [25]: -0.012
glycan array binding signal (z-score) [26]: 0.004
glycan array binding signal (z-score) [27]: -0.362
glycan array binding signal (z-score) [28]: -0.178
